# Source: the supplement of paper PMC11417369
# The other results are listed elsewhere or left out.
# Tested on: PfAP2-HC AP2 domain (GST-tagged)
# Test: gcPBM binding intensity (ln(normalized median fluorescence intensity)); higher = stronger DNA binding
# Procedure, shortened: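 The highest Masliner-normalised natural-log median intensity across replicate spots of either probe orientation is reported as binding intensity. GST-tagged P. falciparum DNA-binding domains expressed in E. coli were applied for 1 h to an Agilent 4 × 180k array of primer-extended double-stranded 36-bp intergenic genomic probes plus negative controls, and bound protein was detected with Alexa488 anti-GST antibody and scanned at 488 nm.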
row,Sequence,gcPBM binding intensity (ln)
1,TAAAATGTTATAAGAACATGCAATTCCTTTTATTAT [TGCATGCA_site408],9.54
2,ATTTTAATTTTGTATACACACATTTGAATTATTAAT [CACACA_site3528],9.97
3,TTGTCATTATTATATTGTACAATAAGTATTAAAGAA [XGTACX_site1205],9.61
4,TATATATATTCTTTGTGTACTCATATAAGGGTAGAA [XGTACX_site8121],9.43
5,TTTTTAGAAAAGGTTATAAAAAATTAATTGAAAAAA [GTGCAC_negctrl_site289],9.31
6,AATCAATATTATATATGTACTTATTTTCACTTTTGC [XGTACX_site1775],9.81
7,TATGAACATATATATTGTACAAAATTATAATTTCAA [XGTACX_site6406],9.42
8,AAGCGAATCTATATCACACACAAAAAAATCAGACTA [CACACA_site7072],9.9
9,AGTTCAGAATTGAATAGTACATAAATATAACAAAAT [XGTACX_site650],9.88
10,AACTGATATTAATTCTGTACCTATACGTTATATGTT [XGTACX_site1003],9.86
11,ACCCAAAATATATTCACACAAAAAATATTAAAAATA [CACACA_site5433],9.61
12,AAAAATAAATATACATGTACATAATAATAATATATA [XGTACX_site8359],10.1
13,TTTGAAAAAAAATATTGTACACGTGAATAAAGTATT [XGTACX_site644],9.69
14,TTGCATCTATTTTTGAGTACACAATGAGAATAATTA [XGTACX_site7171],9.26
15,AAAAAAAAAAGACACACACACACATACACATACATA [CACACA_site7362],11.1
16,TATATATATATATATATATATATATATATAATTTGA [XGTACX_negctrl_site3],9.36
17,TTATTATATATGTTCACATAAATACATAAATATATA [GTGCAC_negctrl_site529],9.42
18,TTAAAAAAGTAATTAACACACAATAATGTAATGCAT [CACACA_site4176],9.9
19,TATTTAAATTAATATTGTACATATATTTATAATATA [XGTACX_site6109],9.5
20,TTTATTTATATAATTACACACATATATACACAAATG [CACACA_site8903],9.79
21,AAATATATTATATATGCATGCGCCAAGATTTATATA [TGCATGCA_site770],9.61
22,TAATATATATAACAAGTGCAAAAAAATATAGATATT [GTGCAC_site9625],9.88

row,Sequence,gcPBM binding intensity (ln)
1,AATAAACAAATAAATAAATAAACAGATAAATAAATC [CACACA_negctrl_site920],9.84
2,AAGCATCCTACTGATTGTACATATATATATATATAT [XGTACX_site2150],9.93
3,GAGAACATTGATACACGTACATAAGTTATAAGTATT [XGTACX_site7665],9.71
4,TTAGGTTATAAATACACACACAAAAGAAAAAAAAAA [CACACA_site5625],10.1
5,AAAAAAAAAAAAAAAGCACACACACCGATGTGTATA [CACACA_site8224],10.8
6,TATATATATATACCTTGTACTTACATTCGCATATAA [XGTACX_site2466],9.63
7,ACATAAATATATGACACACACACATATTATATATAT [CACACA_site3065],11.1
8,CCATTACCATATAAAACACACAAACATACATACATA [CACACA_site5952],10.3
9,GTATAATTATGTGCACGTACATATTTTATTATATAT [XGTACX_site8586],9.93
10,TATATATATATAAAGACACACATCTATAGAATGTTA [CACACA_site2557],9.7
11,TTGTTTTCTTTTTCTTTTCTTTTTCTTTTTTCTTTT [GTGCAC_negctrl_site629],9.76
12,TATTTATATTTATACACACACACAAAAAAAAAAAAA [CACACA_site6817],10.2
13,AATATAGAAATAAATATATCACATTTGTGTTTAAAC [XGTACX_negctrl_site68],9.7
14,TTTATGACTTGAAAAAGTACACATATATTTATGCAA [XGTACX_site5451],9.52
15,TACCAAATTTATTCTTGTACATATATATATATATAT [XGTACX_site4832],9.76
16,ATATATATTTATAGGTGTACAAAATACTATTTTAGG [XGTACX_site8499],9.49
17,AAAAGGAAAAATATCACACATATATATATATATATA [CACACA_site5586],9.69
18,ATTATTATACACAAATGTACATGTGAATTTTTTTTC [XGTACX_site6982],9.63
19,AATAAGTAACAAAATACACACATATAGGTAATTATA [CACACA_site6949],10.2
20,ATATGTTCCGAAGGTTGTACACACATAGAAATATAC [XGTACX_site8227],9.93
21,AAAATATATACAATATGTACATATATATATATATAT [XGTACX_site1898],9.68
22,TTACCCATTCCCTTTACATGCAATTTGTATTAATAA [TGCATGCA_site412],9.72

row,Sequence,gcPBM binding intensity (ln)
1,GTACGTTAGATATATACACACATACATAATAAAGAA [CACACA_site7327],10.1
2,TTAATTCTACTTATTACACACATATTAAGCAAAAAT [CACACA_site4921],9.63
3,TTACATGTAAAAGGTACACACATTATGTATACAAAT [CACACA_site1117],9.89
4,TTTTTTTTTTTTTTTTGTCCGTACTGCTTTGTGTTT [XGTACX_site3687],9.19
5,ATGATAAACATGGATACACACATATAGATTGCATAT [CACACA_site6843],9.94
6,ATATATATTAACAATACACACGTGTATACCTTATTG [CACACA_site5258],10.1
7,TTCATCTTAAAATTGGGTACATAACACAAAGTATAA [XGTACX_site1894],9.39
8,ATTTCTCTATCGTAATGTACATAAAAAAGAAAAACA [XGTACX_site6374],9.48
9,TTATTAAATTCATAAGTGCATTTATGATTAATTTTT [GTGCAC_site9749],9.57
10,AATACATACAGACACACACACACATATATATATATA [CACACA_site3558],11.5
11,AAACTTAATATCGGTACACACACAAGATAAGAATTA [CACACA_site8200],10.3
12,CACATACACCCATACACACACATATATATTAAGATA [CACACA_site4459],10.2
13,CTATAAATATTTTATTGTACACACTTTTTATGAATG [XGTACX_site6711],9.82
14,ATATATATATAGTGCACACTTAAGAATATAAAGAGG [CACACA_site1151],9.91
15,AAAATTTTTAGTTATACACACAACATAGAAAATATT [CACACA_site328],9.78
16,CTTAATTTAATGAAATGTACATATAAAAATATTATA [XGTACX_site3303],9.45
17,TTTGATCGATGGATTTAACACACAAAAAAAAAAAAA [CACACA_site9279],9.59
18,GTAAGAAACAGACACACACACATATATATATATATA [CACACA_site794],10.4
19,GAACAGTTTGTTTAGTGTACTTTTTTTTTTTTTTTT [XGTACX_site8881],9.48
20,AATAATTTTATCGGTACACACTGTATGCATAATATT [CACACA_site4364],9.84
21,CCTATAAATGCATTCACACATATATATTTATATTAT [CACACA_site6086],9.83
22,ATGTACAAAATAAGCACACACAAAAAAAAAAAAAAT [CACACA_site2998],10.4

row,Sequence,gcPBM binding intensity (ln)
1,TCAAAAATAAAGATCACACATATATATATATATATA [CACACA_site4381],9.73
2,TCTAATTACAAAAACATACACACAAAAAAAAAAAAA [CACACA_site3783],10.1
3,AAATAAAAACCATATCGTACAAAAATTTTTGTATTT [XGTACX_site7497],9.68
4,ATATATATATATATATGTACTTAAAAATTTGTTTTG [XGTACX_site1514],9.5
5,AAGTCAATTTTTTTTTTTTTTTTTTAACTTATTAAT [TGCATGCA_negctrl_site14],9.39
6,GATCACTGAATAAAGGCACACATCTGACTAATTTTT [CACACA_site66],9.78
7,TCCTTAAAAATCTAAAAAGAAAAAAACATATATTTT [GTGCAC_negctrl_site123],9.26
8,TATACCTATAAATACACACACATATATAAATATGTA [CACACA_site6625],9.96
9,ATTATTATATATATAACACACATAATTATATACTTA [CACACA_site1563],9.8
10,TTAAAAAGTGCGTAGTGTACTAATATAAATAATACA [XGTACX_site2922],9.92
11,TGAATAAATATATATACACACCCATATATATATATA [CACACA_site8833],9.89
12,AATGTATATAATATTAATATGTAAATATATAATCAA [CACACA_negctrl_site1683],9.7
13,AACATATACCCAGGTACATGCAAATATATATATTAT [TGCATGCA_site878],9.68
14,TTTAAAAATTAATTCTGTACACATTTTTATTTTATT [XGTACX_site8],9.77
15,TTCTTTCTTCAAAAGTGTACCAAATGTTAGAAAGGT [XGTACX_site4353],9.47
16,ATATATATATATATGTGTACACAACAAAATAAAAAA [XGTACX_site7378],10.1
17,AAAAAAATAACAAAATGTATACAATATAACAAAAAT [GTGCAC_negctrl_site512],9.92
18,ATTCATTTCTATTTTACACACAATAAGTAACTTAAT [CACACA_site2850],9.97
19,CTCATCCTTACATACACACACATATATATATATATA [CACACA_site103],10.3
20,ATATTTAAATCGAAGGTGCGTATTTCCTTTTTTTTT [GTGCAC_site9632],9.7
21,ATATATACATATAACACACACATATATATATATATA [CACACA_site2575],10.1
22,AGTATAAATAAATCATAAACATATATATATATATAT [GTGCAC_negctrl_site356],9.65
